Results published in PubChem BioAssay AID2006 (Sanford-Burnham Center for Chemical Genomics, 2009).
The list shows a part of the results. Further columns of the screen follow, without active or inactive calls.

These compounds were tested against SUMO-conjugating enzyme UBC9 (Homo sapiens) (UniProt P63279) (assay: inhibitors of in vitro SUMOylation cascade, primary screen, biochemical, HTRF, uHTS (AID 2006)). Conditions: HTRF SUMOylation assay, SAE1/SAE2 + UBC9, in vitro; average of repeat tests; at 35 µM; stronger effect = higher value.
Sequence of UniProt P63279 (P63279 whole entry, looked up): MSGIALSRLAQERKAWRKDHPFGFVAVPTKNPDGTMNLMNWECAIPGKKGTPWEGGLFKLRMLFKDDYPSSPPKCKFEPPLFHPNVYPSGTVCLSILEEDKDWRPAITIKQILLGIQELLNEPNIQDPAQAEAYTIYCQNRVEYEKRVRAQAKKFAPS

SMILES | inhibition [%]
CN1CCN(c2ccc3nccnc3c2)CC1 | 42.8
CCCNC(=O)c1c(N)n(CC2CCCO2)c2nc3ccccc3nc12 (centres undefined) | 34.5
O=C1NC(=O)N(Cc2ccco2)C(=O)/C1=C\c1cccn1CCOc1ccc(Cl)cc1 | 34
CCCCn1c(NS(=O)(=O)c2ccccc2)c(C(=O)OCC)c2nc3ccccc3nc21 | 75.5
O=c1[nH]c(O)c(/C=C2/C=CC(c3cc(Cl)ccc3Cl)=N2)c(=O)[nH]1 | 69.3
COc1cc(C(c2c(C)[nH]n(-c3ccccc3)c2=O)c2c(C)[nH]n(-c3ccccc3)c2=O)cc(OC)c1OC | 61.3
Cc1ccccc1-n1c(O)c(/C=N/NC(=O)c2ccccc2O)c(=O)[nH]c1=S | 39.9
CN1CCC2(CC1)C(C#N)=C(N)NC(S)=C2C#N | 98.2
O=C(O)c1ccc2c(c1)C1C(Cl)C(Sc3ccccc3[N+](=O)[O-])CC1C(c1cccc([N+](=O)[O-])c1)N2 (centres undefined) | 55
Cc1cc(/C=C2\C(=O)NC(=O)N(Cc3ccccc3)C2=O)c(C)n1-c1ccc(Cl)c(C(=O)O)c1 | 77.8
Cc1ccsc1C(=O)C1CCCN(Cc2ccc(-n3cccn3)cc2)C1 (centres undefined) | 63.5
N#C/C(=C(/O)c1ccc(S(=O)(=O)N(CCCl)CCCl)cc1)c1nc2ccccc2[nH]1 | 44.4
O=C1NC(=O)N(Cc2ccco2)C(=O)/C1=C/c1ccc(-c2cccc([N+](=O)[O-])c2)o1 | 66.4
CC(C)OCCCNC(=O)c1c(N)n(CC2CCCO2)c2nc3ccccc3nc12 (centres undefined) | 34.8
CCCCn1c(N)c(C(=O)OCCOC)c2nc3ccccc3nc21 | 36
CCCCn1c(NS(=O)(=O)c2ccc(C)cc2)c(C(=O)OCC)c2nc3ccccc3nc21 | 61.2
O=C(O)c1cccc2c1NC(c1cccc([N+](=O)[O-])c1)C1CC(Sc3ccccc3[N+](=O)[O-])C(Cl)C21 (centres undefined) | 87.9
O=C(N/N=C/c1c(O)n(Cc2ccco2)c(=O)[nH]c1=O)c1ccccc1O | 50.5
CCCCNC(=O)c1c(N)n(CCCOC)c2nc3ccccc3nc12 | 35
O=C(c1cccn2c(=O)c3ccc(Cl)cc3nc12)N1CCC2(CC1)OCCO2 | 51.5
O=c1[nH]c(O)c(/C=C2\C=Nc3ccc(OCc4ccccc4)cc32)c(=O)[nH]1 | 43.3
O=C(O)CC1OCC=C2CN3CCC45C6=CC(=O)C(=O)C([N+](=O)[O-])=C6NC4C1C2CC35 (centres undefined) | 96.9
CN1C[C@H](CO)C=C2c3cccc4[nH]cc(c34)C[C@H]21 | 41.4
O=C1NC(=S)NC(=O)C1=Cc1cccn1-c1ccc(O)cc1 | 60.1
